# Experimental data from PubChem BioAssay AID485294 (National Center for Advancing Translational Sciences (NCATS), 2010).
# The whole screen tested about 370,000 compounds, of which about 150 (0.041%) were called active. Inconclusive means that the source gave no clear call. Such entries were picked first, then a sample of the others. Calls come from the whole dose curve; as a rule, active = well fitted inhibition curve with a large enough effect; inconclusive = small, poorly fitted or top-dose-only effect; inactive = flat fitted curve, though single readings scatter. Potencies of inconclusive entries are left out as doubtful fits.
# Molecular target: Beta-lactamase (Escherichia coli (strain K12)) (UniProt P00811)
# Sequence of UniProt P00811 (P00811 whole entry, looked up): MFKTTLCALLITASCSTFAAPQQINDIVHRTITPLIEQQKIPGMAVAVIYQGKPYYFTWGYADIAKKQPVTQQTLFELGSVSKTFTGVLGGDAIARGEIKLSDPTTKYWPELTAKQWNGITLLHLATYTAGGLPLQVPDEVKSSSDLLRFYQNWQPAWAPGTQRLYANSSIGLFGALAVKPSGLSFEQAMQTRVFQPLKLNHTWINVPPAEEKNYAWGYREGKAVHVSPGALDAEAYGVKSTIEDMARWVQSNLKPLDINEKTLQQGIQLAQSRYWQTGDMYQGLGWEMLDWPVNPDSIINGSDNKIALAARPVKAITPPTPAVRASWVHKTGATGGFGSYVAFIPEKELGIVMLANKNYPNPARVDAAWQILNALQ
# Test: qHTS Inhibitors of AmpC Beta-Lactamase (assay with detergent); note: nearly all actives have a fitted effect of over 25% in size
# Conditions: AmpC hydrolysis of nitrocefin, absorbance 480 nm, 0.01% Triton; series mostly up to 114 µM
# Outline: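 AmpC (5.3 nM in the dispensed reagent) in 20 mM phosphate pH 7.0 with 0.01% (detergent screen) or 0.0001% Triton X-100 was preincubated with compounds for 15 min at room temperature. Nitrocefin was then added from an 800 uM solution, and hydrolysis was followed at 480 nm.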
# Potency is the fitted concentration of half-maximal effect; tags give direction and shape of the fitted curve.
row,Structure (SMILES),Potency
1,COC(=O)C1=C(C)N(C)C(=O)NC1c1ccc(O)c(OC)c1 (centres undefined),"inconclusive [inhibitor, full curve, poor fit]"
2,COc1ccc(CN(C)C(=O)C2CC(=O)N(c3ccc4c(c3)OCCO4)C2)c(OC)c1 (centres undefined),inactive
3,O=C(Nc1cccc(C(=O)N2CCN(c3ccccc3)CC2)c1)c1ccco1,inactive
4,CC12CCC(=O)N1C(C(=O)NCCN1C(=O)S/C(=C\c3ccc(F)cc3)C1=O)CS2 (centres undefined),"inconclusive [inhibitor, full curve, poor fit]"
5,CC(Oc1ccc2c(-c3ccccc3)cc(=O)oc2c1)C(=O)N1CCC[C@@H]1C(N)=O (some centres undefined),"inconclusive [inhibitor, full curve, poor fit]"
6,COc1ccc(C(=O)NCCc2c[nH]c3ccccc23)cc1S(=O)(=O)N1CCOCC1,"inconclusive [inhibitor, partial curve, poor fit]"
7,CCN(Cc1ccccc1)C(c1ccncc1)c1nnnn1C(C)(C)C (centres undefined),"inconclusive [inhibitor, single point]"
8,C(=N\c1nc2ccccc2[nH]1)/c1cccs1,inactive
9,COc1ccc(C(CC(=O)Nc2ccc(C)cn2)N2Cc3ccccc3C2=O)cc1 (centres undefined),"inconclusive [inhibitor, partial curve]"
10,CCOC(=O)N1CCN(CC(O)COc2ccc(OC)cc2C(C)(C)C)CC1 (centres undefined),"inconclusive [inhibitor, full curve, poor fit]"
11,CC1CCCN(S(=O)(=O)c2ccc(NC(=O)CN3CCN(C)CC3)cc2)C1 (centres undefined),inactive
12,Cc1cccc(S(=O)(=O)N/N=c2\sc3ccccc3n2C)c1,inactive
13,CCCc1cc(=O)oc2cc3occ(C)c3cc12,"inconclusive [inhibitor, full curve]"
14,CCN1CCN(Cc2ccc(NC(=O)Nc3ccccc3)cc2)CC1,"inconclusive [inhibitor, full curve, poor fit]"
15,Cc1ccc(C(=O)N/C(=C\c2ccco2)C(=O)NCCCn2ccnc2)cc1C,inactive
16,O=c1c2ccccc2c2ccccc2c(=O)n1Cc1ccco1,"inconclusive [inhibitor, partial curve]"
17,COC(=O)C1C(=O)c2c([nH]c(C(=O)OCCOC(C)C)c2C)CC1C (centres undefined),"inconclusive [inhibitor, single point]"
18,CCn1c(SCC(=O)N2CCN(c3ccccc3)CC2)nnc1-c1ccoc1C,"inconclusive [inhibitor, full curve, poor fit]"
19,C=CCOc1c(OC)cc(Cl)cc1C1NC(=O)NC(C)=C1C(C)=O (centres undefined),inactive
